{"source": "the supplement of paper PMC9446081", "note": "Among all 39,000 compounds or so, about 220 (0.56%) showed activity. This is one part of the list.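 Note: static incubation at 37 °C against the wild-type strain, values averaged over two biological replicates.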"}
{"tested_on": "Escherichia coli K-12 BW25113", "assay": "relative growth (OD600 normalised to plate interquartile mean) (fraction); higher = less growth inhibition, active = 0.2 or less", "settings": "50 µM; LB; incubation time: overnight (16-24 h)"}
{"smiles": "COc1ccc(CN(C)C[C@@H]2OCCCC[C@H](C)Oc3ccc(NC(=O)NC(C)C)cc3C(=O)N([C@@H](C)CO)C[C@@H]2C)cc1", "relative growth": "inactive: 0.992"}
{"smiles": "C[C@@H]1CN([C@@H](C)CO)C(=O)c2cc(NS(C)(=O)=O)ccc2O[C@@H]1CN(C)C(=O)Nc1ccccc1", "relative growth": "inactive: 0.991"}
{"smiles": "C[C@@H]1CN([C@H](C)CO)C(=O)c2cc(NS(=O)(=O)c3cn(C)cn3)ccc2O[C@H]1CN(C)Cc1ccncc1", "relative growth": "inactive: 0.829"}
{"smiles": "CCCNC(=O)N1C[C@@H](O)COC[C@@H]2O[C@@H](CC(=O)N3CCN(C)CC3)CC[C@H]21", "relative growth": "inactive: 0.991"}
{"smiles": "COc1ccc(NC(=O)Nc2ccc3c(c2)C(=O)N([C@H](C)CO)C[C@@H](C)[C@@H](CN(C)S(=O)(=O)c2cn(C)cn2)O3)cc1", "relative growth": "inactive: 0.975"}
{"smiles": "COC(=O)[C@H](Cc1ccc(-n2cc(C(=O)NO)nn2)cc1)N1C[C@](C)(OC)O[C@@H](Cc2ccccc2)[C@H]1/C=C/C1CC1", "relative growth": "inactive: 1.01"}
{"smiles": "C[C@H](CO)N1C[C@H](C)[C@@H](CN(C)C(=O)NC2CCCCC2)Oc2ccc(NC(=O)Nc3cccc4ccccc34)cc2C1=O", "relative growth": "inactive: 1.04"}
{"smiles": "CC(C)(C)OC(=O)N[C@H]1CCC(=O)NC1=O", "relative growth": "inactive: 1.05"}
{"smiles": "C[C@@H]1CN([C@H](C)CO)C(=O)c2cc(NC(=O)CCCCCC(=O)Nc3ccccc3N)ccc2O[C@H]1CN(C)S(C)(=O)=O", "relative growth": "inactive: 1"}
{"smiles": "Cc1ccccc1S(=O)(=O)N1C[C@H](O)COC[C@@H]2O[C@@H](CC(=O)NCCc3ccccc3)CC[C@H]21", "relative growth": "inactive: 0.985"}
{"smiles": "C[C@H](CO)N1C[C@H](C)[C@H](CN(C)C(=O)NC2CCCCC2)OCCCC[C@H](C)Oc2ccc(NC(=O)c3ccncc3)cc2C1=O", "relative growth": "inactive: 0.98"}
{"smiles": "COCC(=O)Nc1ccc2c(c1)C(=O)N(C)[C@@H]1CC[C@H](CC(=O)NCc3ccc(OC)cc3)O[C@H]1CO2", "relative growth": "inactive: 0.999"}
{"smiles": "Cl.Cl.NCCCCN", "relative growth": "inactive: 0.999"}
{"smiles": "COc1ccc(NC(=O)Nc2ccc3c(c2)C(=O)N([C@@H](C)CO)C[C@@H](C)[C@H](CN(C)CC2CCCCC2)O3)cc1", "relative growth": "inactive: 0.998"}
{"smiles": "C[C@H]1CN([C@@H](C)CO)C(=O)CCCn2nncc2CO[C@H]1CN(C)S(=O)(=O)c1cccc(C#N)c1", "relative growth": "inactive: 0.974"}
{"smiles": "COc1ccc(S(=O)(=O)Nc2ccc3c(c2)CC(=O)N([C@H](C)CO)C[C@H](C)[C@H](CN(C)Cc2ccc(-c4ccccc4)cc2)O3)cc1", "relative growth": "inactive: 1.01"}
{"smiles": "Cc1ccccc1S(=O)(=O)N1C[C@H](O)COC[C@H]2O[C@H](CC(=O)N3CCC(Cc4ccccc4)CC3)CC[C@@H]21", "relative growth": "inactive: 0.975"}
